# The other results are listed elsewhere or left out. Most values come without repeats; read them as rough.
# Tested on: IPC-298
# Assay: cell count relative to DMSO control; melanoma cells; higher = more viable cells
# Conditions: library dose: standard library concentration; 72 h; first compound 2 µM
# 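Note: cells treated in 1,536-well plates, then fixed and DAPI-stained, with nuclei counted from automated high-throughput microscope images.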
row,Compound,cell count [%]
1,C[C@@H](N)c1ccc(C(=O)Nc2ccnc3[nH]ccc23)cc1 + CO[C@@H]1[C@H](N(C)C(=O)c2ccccc2)C[C@H]2O[C@]1(C)n1c3ccccc3c3c4c(c5c6ccccc6n2c5c31)C(=O)NC4 [Midostaurin] (partner dose 0.4 µM),81.1
2,Cn1sc(=O)n(Cc2ccccc2)c1=O + Nc1cccc2c1CN(C1CCC(=O)NC1=O)C2=O [lenalidomide] (partner dose 5 µM),106
3,Cn1sc(=O)n(Cc2ccccc2)c1=O + COc1cc2c(Oc3ccc4[nH]c(C)cc4c3F)ncnc2cc1OCCCN1CCCC1 [cediranib] (partner dose 2 µM),96.9
4,C[C@@H](N)c1ccc(C(=O)Nc2ccnc3[nH]ccc23)cc1 + Cn1sc(=O)n(Cc2ccccc2)c1=O [TDZD-8] (partner dose 2 µM),73.8
5,C[C@@H](N)c1ccc(C(=O)Nc2ccnc3[nH]ccc23)cc1 + CC(C)C[C@H](NC(=O)[C@H](Cc1ccccc1)NC(=O)c1cnccn1)B(O)O [Bortezomib] (partner dose 0.005 µM),8.5
6,CCCCCCCCCCCCCCCCCCOP(=O)([O-])OC1CC[N+](C)(C)CC1 [Perifosine] + C#Cc1cccc(Nc2ncnc3cc(OCCOC)c(OCCOC)cc23)c1 [erlotinib] (partner dose 4 µM),49.5
7,Cn1sc(=O)n(Cc2ccccc2)c1=O + CNC(=O)c1cc(Oc2ccc(NC(=O)Nc3ccc(Cl)c(C(F)(F)F)c3)cc2)ccn1 [sorafenib] (partner dose 2 µM),84.5
8,CCCCCCCCCCCCCCCCCCOP(=O)([O-])OC1CC[N+](C)(C)CC1 [Perifosine] + C[C@]1(c2nc3c(C(N)=O)cccc3[nH]2)CCCN1 [Veliparib] (partner dose 7 µM),90.4
9,Cn1sc(=O)n(Cc2ccccc2)c1=O + Cc1cc(Nc2cc(N3CCN(C)CC3)nc(/C=C/c3ccccc3)n2)n[nH]1 [ENMD2076] (partner dose 0.2 µM),99.9
10,CCCCCCCCCCCCCCCCCCOP(=O)([O-])OC1CC[N+](C)(C)CC1 [Perifosine] + COc1ccc(C2=N[C@@H](c3ccc(Cl)cc3)[C@@H](c3ccc(Cl)cc3)N2C(=O)N2CCNC(=O)C2)c(OC(C)C)c1 [Nutlin-3] (partner dose 0.5 µM),98.5
11,Cn1sc(=O)n(Cc2ccccc2)c1=O + Cn1c(=O)n(-c2ccc(C(C)(C)C#N)cc2)c2c3cc(-c4cnc5ccccc5c4)ccc3ncc21 [NVP-BEZ235] (partner dose 0.02 µM),84.5
12,C[C@@H](N)c1ccc(C(=O)Nc2ccnc3[nH]ccc23)cc1 + Nc1nc(F)nc2c1ncn2[C@@H]1O[C@H](CO)[C@@H](O)[C@@H]1O [fludarabine] (partner dose 1 µM),71
13,C[C@@H](N)c1ccc(C(=O)Nc2ccnc3[nH]ccc23)cc1 + O=C(Nc1cccc(Cl)c1)Nc1ncc(CCNc2ncnc3ccsc23)s1 [SNS314] (partner dose 0.004 µM),90.4
14,Cn1sc(=O)n(Cc2ccccc2)c1=O + O=C(O)c1ccc2c(c1)nc(Nc1cccc(Cl)c1)c1ccncc12 [CX4945] (partner dose 2 µM),66.1
15,Cn1sc(=O)n(Cc2ccccc2)c1=O + COc1ccc(Cl)c(Nc2nc3ccccc3nc2NS(=O)(=O)c2cccc(NC(=O)C(C)(C)N)c2)c1 [XL147] (partner dose 4 µM),75.5
16,CCCCCCCCCCCCCCCCCCOP(=O)([O-])OC1CC[N+](C)(C)CC1 [Perifosine] + Cn1nnc2c(C(N)=O)ncn2c1=O [temozolomide] (partner dose 10 µM),100
17,CCCCCCCCCCCCCCCCCCOP(=O)([O-])OC1CC[N+](C)(C)CC1 [Perifosine] + Clc1ccc(Nc2nnc(Cc3ccncc3)c3ccccc23)cc1 [vatalanib] (partner dose 10 µM),78.4
18,C[C@@H](N)c1ccc(C(=O)Nc2ccnc3[nH]ccc23)cc1 + COc1cc(Nc2ncc(F)c(Nc3ccc4c(n3)NC(=O)C(C)(C)O4)n2)cc(OC)c1OC [Tamatinib] (partner dose 2 µM),79.3
19,C[C@@H](N)c1ccc(C(=O)Nc2ccnc3[nH]ccc23)cc1 + COc1cc2c(Oc3ccc4[nH]c(C)cc4c3F)ncnc2cc1OCCCN1CCCC1 [cediranib] (partner dose 2 µM),97.6

# From the supplement of paper PMC4604168 (melanoma cell lines)
